Data from the supplement of paper PMC7125110.
± gives the standard error. Variants at the background level are over-represented here.

B1: glmS ribozyme (parent)
chain: AUAAAAGCGCCAGAACUACAGAAAUGUAGUUGACGAGGAGGAGGUUUAUCGAAUUUUCGGCGGAUGCCUCCAAA

Assays:
Settings in all cases: with glucosamine-6-phosphate
[1] = variants of: B1; assay: self-cleavage kobs at 40 uM GlcN6P; higher = faster cleavage; RNA array
How it was run: (§1)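 Tiles of sequenced MiSeq chips were imaged over ~14 h at 37 °C. On them, barcoded ribozyme variants had been transcribed in situ by E. coli RNA polymerase and were tracked via a hybridised Cy3 probe while glucosamine-6-phosphate (40 μM to 10 mM) in HEPES/KCl/Mg(OAc)2 buffer flowed in. Per-tile medians, normalised to baseline and to non-cleaving reference variants, were fit to one- or two-exponential decays for kobs, and weighted Michaelis–Menten fits gave kcat and KM.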

[2] = variants of: B1; assay: self-cleavage kobs at 640 uM GlcN6P; higher = faster cleavage; RNA array
How it was run: as §1

[3] = variants of: B1; assay: self-cleavage kobs at 2500 uM GlcN6P; higher = faster cleavage; RNA array
How it was run: as §1

[4] = variants of: B1; assay: self-cleavage kobs at 10000 uM GlcN6P; higher = faster cleavage; RNA array
How it was run: as §1

[5] = variants of: B1; assay: self-cleavage kobs at 160 uM GlcN6P; higher = faster cleavage; RNA array
How it was run: as §1

| Variant | self-cleavage kobs at 40 uM GlcN6P [1] [s⁻¹] | self-cleavage kobs at 640 uM GlcN6P [2] [s⁻¹] | self-cleavage kobs at 2500 uM GlcN6P [3] [s⁻¹] | self-cleavage kobs at 10000 uM GlcN6P [4] [s⁻¹] | self-cleavage kobs at 160 uM GlcN6P [5] [s⁻¹] |
| --- | --- | --- | --- | --- | --- |
| G44C C58G | < 1e-05 | < 1e-05 | < 1e-05 | < 1e-05 | – |
| G44C G62U | < 1e-05 | < 1e-05 | < 1e-05 | < 1e-05 | < 1e-05 |
| U46C | 0.000108 ± 2.5e-06 | 0.00126 ± 3.5e-05 | 0.00342 ± 0.00018 | 0.00329 ± 7.7e-05 | 0.000364 ± 1.3e-05 |
| G44C G63C | < 1e-05 | < 1e-05 | < 1e-05 | < 1e-05 | – |
| G43U G51C | < 1e-05 | < 1e-05 | < 1e-05 | < 1e-05 | – |
| U45A C61G | < 1e-05 | < 1e-05 | < 1e-05 | < 1e-05 | < 1e-05 |
| U47G C50U A64U | < 1e-05 | – | – | – | – |
| A42G U55A G63C | < 1e-05 | – | – | – | – |
| U46G G59C | < 1e-05 | < 1e-05 | < 1e-05 | – | < 1e-05 |
| A48G G63U | < 1e-05 | – | < 1e-05 | < 1e-05 | – |
| U46G A48U G60C | < 1e-05 | < 1e-05 | < 1e-05 | – | < 1e-05 |
| U46C A53G | 8.69e-05 ± 1.5e-05 | 0.00119 ± 0.00015 | 0.0025 ± 0.00035 | 0.00272 ± 0.00067 | 0.000402 ± 6.7e-05 |
| C50G G62U C68G | 0.000123 ± 3.2e-05 | – | – | – | – |
| G43C C61G | < 1e-05 | < 1e-05 | < 1e-05 | < 1e-05 | < 1e-05 |
| U47A C70U | 0.000803 ± 0.00012 | 0.0018 ± 0.00029 | 0.00221 ± 0.00048 | 0.00993 ± 0.0023 | 0.00118 ± 0.00023 |
| G44A C50U | < 1e-05 | < 1e-05 | < 1e-05 | < 1e-05 | – |
| G44A C50A | < 1e-05 | < 1e-05 | < 1e-05 | < 1e-05 | – |
| G44A G60U | < 1e-05 | < 1e-05 | < 1e-05 | < 1e-05 | – |
| G44U A48U C68U | < 1e-05 | – | – | < 1e-05 | – |
| G43U U47C | < 1e-05 | < 1e-05 | < 1e-05 | < 1e-05 | – |
| U46G C58U | < 1e-05 | – | – | – | – |
| G44U G62U | < 1e-05 | < 1e-05 | < 1e-05 | < 1e-05 | < 1e-05 |

| Variant | self-cleavage kobs at 40 uM GlcN6P [1] [s⁻¹] | self-cleavage kobs at 640 uM GlcN6P [2] [s⁻¹] | self-cleavage kobs at 2500 uM GlcN6P [3] [s⁻¹] | self-cleavage kobs at 10000 uM GlcN6P [4] [s⁻¹] | self-cleavage kobs at 160 uM GlcN6P [5] [s⁻¹] |
| --- | --- | --- | --- | --- | --- |
| A42G G63U | < 1e-05 | < 1e-05 | < 1e-05 | – | < 1e-05 |
| A48U G51U G60A | < 1e-05 | – | < 1e-05 | – | – |
| G43A U47A | < 1e-05 | – | – | – | < 1e-05 |
| U47A U54G G63A | < 1e-05 | – | – | – | – |
| G44A G60U A64G U69C | < 1e-05 | – | – | – | – |
| A42C G59U | < 1e-05 | < 1e-05 | < 1e-05 | – | – |
| A42C G59A | < 1e-05 | – | < 1e-05 | – | < 1e-05 |
| U45C G63U | < 1e-05 | < 1e-05 | < 1e-05 | < 1e-05 | < 1e-05 |
| U47G A48C C50A | < 1e-05 | < 1e-05 | – | < 1e-05 | – |
| U47A C61G | < 1e-05 | – | – | – | – |
| A42G G51C | < 1e-05 | < 1e-05 | – | < 1e-05 | – |
| U49G U55G U65G | < 1e-05 | – | – | – | – |
| G43C U45G | 8.35e-05 ± 1.2e-05 | 0.000694 ± 0.00012 | 0.00109 ± 0.00024 | 0.00211 ± 0.00027 | 0.000135 ± 2.3e-05 |
| U49C C70U C71A | < 1e-05 | – | – | < 1e-05 | – |
| A42C U49A | < 1e-05 | < 1e-05 | < 1e-05 | – | < 1e-05 |
| A42G U55G G59C | < 1e-05 | – | – | – | – |
| A48U C61A C67U | < 1e-05 | – | – | – | – |
| U45G G63C | < 1e-05 | < 1e-05 | < 1e-05 | < 1e-05 | – |
| A42G U57G | < 1e-05 | – | 4.17e-05 ± 1.4e-05 | 4.59e-05 ± 1.4e-05 | < 1e-05 |
| U49G U56C | < 1e-05 | – | – | – | – |
| G43U U49A | < 1e-05 | – | – | < 1e-05 | – |
